# Some of the results follow. Repeats are few or missing, and single values can be far off.
# Experiments:
# [1] = test system: hiPSC-derived cardiomyocytes; experiment: time to death of most cells in well after compound addition (days); higher = less cardiotoxic; details: screen: 1; 10 µM
# [2] = test system: hiPSC-derived cardiomyocytes; experiment: time to death of most cells in well after compound addition (days); higher = less cardiotoxic; extreme values may be limits of the assay; details: 10 µM
structure (smiles),measurement,setting,value
Cc1ccc(F)c(NC(=O)Nc2ccc(-c3cccc4[nH]nc(N)c34)cc2)c1 [Linifanib (ABT-869)],time to death of most cells in well,[1],> 7
same,time to death of most cells in well,[2]; screen: 2,> 7
same,time to death of most cells in well,[2]; screen: 3,> 7
same,time to death of most cells in well,[2]; screen: 4,> 7
Cn1cnc2c(F)c(Nc3ccc(Br)cc3F)c(C(=O)NOCCO)cc21,time to death of most cells in well,[1],> 7
same,time to death of most cells in well,[2]; screen: 2,> 7
same,time to death of most cells in well,[2]; screen: 3,> 7
same,time to death of most cells in well,[2]; screen: 4,> 7
C#Cc1cccc(Nc2ncnc3cc(OC)c(OCCCCCCC(=O)NO)cc23)c1,time to death of most cells in well,[1],5
same,time to death of most cells in well,[2]; screen: 2,4
same,time to death of most cells in well,[2]; screen: 3,6
same,time to death of most cells in well,[2]; screen: 4,6
CN(C)Cc1cccc(N=C(c2ccccc2)c2c(O)[nH]c3cc(C(=O)N(C)C)ccc23)c1,time to death of most cells in well,[1],> 7
same,time to death of most cells in well,[2]; screen: 2,> 7
same,time to death of most cells in well,[2]; screen: 3,> 7
same,time to death of most cells in well,[2]; screen: 4,> 7
CC(C)c1cnn2c(NCc3ccccc3)cc(NCCCCCCN)nc12,time to death of most cells in well,[1],> 7
same,time to death of most cells in well,[2]; screen: 2,6.5
same,time to death of most cells in well,[2]; screen: 3,> 7
same,time to death of most cells in well,[2]; screen: 4,> 7
CCc1cnn2c(NCc3ccc[n+]([O-])c3)cc(N3CCCC[C@H]3CCO)nc12,time to death of most cells in well,[1],5
same,time to death of most cells in well,[2]; screen: 2,4.5
same,time to death of most cells in well,[2]; screen: 3,2
same,time to death of most cells in well,[2]; screen: 4,6
CCN1C(=CC(C)=O)Sc2ccc(OC)cc21,time to death of most cells in well,[1],> 7
same,time to death of most cells in well,[2]; screen: 2,> 7
same,time to death of most cells in well,[2]; screen: 3,> 7
same,time to death of most cells in well,[2]; screen: 4,> 7
C=CC(=O)Nc1cccc(Nc2nc(Nc3ccc(NC4CN(CCF)C4)cc3OC)ncc2C(F)(F)F)c1,time to death of most cells in well,[1],3
same,time to death of most cells in well,[2]; screen: 2,2
same,time to death of most cells in well,[2]; screen: 3,5.5
same,time to death of most cells in well,[2]; screen: 4,> 7
Cc1csc(-c2nnc(Nc3ccc(Oc4ncccc4-c4ccnc(N)n4)cc3)c3ccccc23)c1,time to death of most cells in well,[1],> 7
same,time to death of most cells in well,[2]; screen: 2,5.5
same,time to death of most cells in well,[2]; screen: 3,> 7
same,time to death of most cells in well,[2]; screen: 4,> 7
Cn1cc(C2=C(c3ccc(Cl)cc3Cl)C(=O)NC2=O)c2ccccc21,time to death of most cells in well,[1],3
same,time to death of most cells in well,[2]; screen: 2,3
same,time to death of most cells in well,[2]; screen: 3,> 7
same,time to death of most cells in well,[2]; screen: 4,> 7
CNC(=O)c1cccc(-c2ccc3c(N4CCOC[C@@H]4C)nc(N4CCOC[C@@H]4C)nc3n2)c1 [Vistusertib (AZD2014)],time to death of most cells in well,[1],6
same,time to death of most cells in well,[2]; screen: 2,3.5
same,time to death of most cells in well,[2]; screen: 3,> 7
same,time to death of most cells in well,[2]; screen: 4,> 7
